From the supplement of paper PMC8277577

target: SARS-CoV-2 Wuhan-Hu-1 spike receptor-binding domain; assay: ELISA binding EC50; higher = weaker binding; ELISA of recombinant human antibody on coated antigen, from 10 µg/ml in fourfold dilutions; four-parameter fit.

Binder	ELISA binding EC50 [ng/mL]
C853 (protein) chain 1: QVQLQESGPGLVKASQTLSLTCTVSGGSFRSGGYYYNWIRQHPGKGLEWIGYIFYTGVTYYNPSLKSRVSISVDTSKNQLSLNLTSVTAADTAVYYCARGSYSDYNGGWDYWGRGTLVTVS chain 2: QSALTQPPSASGSPGQSVTISCIGTSSDVGGYNYVSWYQHHPGKAPKLIIYEVSKRPSGVPDRFSGSKSGNTASLTVSGLQADDEADYYCSSYAGSNNWVFGGGTKLTV	2.3
C1041 (protein) chain 1: QVQLVQSGAEVKKPGASVKVSCKASGYTFSDHYIYWVRQAPGQGLEWMGIINPSAGSTSYAQKFQGRVTMTRDTSTSTVYMELSSLRSEDTAVYYCARDIVFVPATMAMDVWGLGTTVTVSS chain 2: EIVLTQSPATLSLSPGERATLSCRASQSVSRYLAWYQQKPGQAPRLLIYDASNRATGIPARFSGSGSGTDFTLTISSLEPEDFAVYYCQQRSNWLFTFGPGTKVDIK	3.65
C1042 (protein) chain 1: QVQLVQSGAEVKKPGASVKVSCKASGYTFSDHYIYWVRQAPGQGLEWMGIINPSGGSTSYAQKFQGRVTMTRDTSTSTVYMELSSLKSEDTAVYYCSRDIVFVPATMAMDVWGQGTTVTVSS chain 2: EIVLTQSPATLSLSPGERATLSCRASQSVSRYLAWYQQKPGQAPRLLIYDASNRATGIPARFSGSGSGTDFTLTISSLEPEDFAVYYCQQRSNWLFTFGPGTKVDIK	4.55
C1044 (protein) chain 1: QVQLQESGPGLVKPSQTLSLTCTVSGGSISSGNYYLTWIRQPAGKGLEWIGHIYTSGSTNYNPSLKSRVTISVDTSMNQFSLKLSSVTAADTAVYYCARDIPPTWYFDLWGRGTLVTVSS chain 2: SYELTQPPSVSVAPGKTARITCGGNNIGSKNVHWYQQKPGQAPVLVVYDDSDRPSGIPERFSGSNSGNTATLTISRVEAGDEAGYYCQVWDSTSDHLFWVFGGGTKLTVL	3.22
C1045 (protein) chain 1: QVQLQESGPGLVKPSQTLSLTCTVSGDSISSGNYYWSWIRQPAGKGLEWIGHIYTSGSPNYKPSLKSRVTISLDTSKNQFSLKLTSVTAADTAMYYCARDIPSTWYFDLWGRGTLVTVSS chain 2: SYELTQPPSVSVAPGKTARIPCGGTDIGSKNVHWYQQKPGQAPVLAVYDDSDRPSGIPERFSGSNSGSTATLTISRVEAGDEADYYCQVWDSSGDRLSWVFGGGTKLTVL	2.57
C1058 (protein) chain 1: EVQLVESGGGLVQPGGSLRLSCAASGIIVSSNYMNWVRQVPGKGLEWVSVLYSGGSTFYADSVRGRFTISRDNSKNTLFLQMNSLRPEDTAVYYCARDFREGAFDIWGQGTMVTV chain 2: DIQLTQSPSFLSASVGDRVTITCRASQGISSYLAWYQQKPGKAPNLLIYAASTLQSGVPSRFSGSGSGTDFTLTISSLQPEDFATYYCQQLNSYSPLFGQGTRLEIK	2.13
C1059 (protein) chain 1: EVQLVESGGGLVQPGGSLRLSCAASGVTVSYNYMHWVRQAPGKGLEWVSVFFPGGSIFYADSVKGRFSISRDNSHNTLYLQMNNLRPEDTAVYYCARDFREGAIDLWGQGTMVTVSS chain 2: DIQLTQSPSFLSASVEDRVTITCRASQGISSYLAWYQQKPGKAPKLLIYGASTLQSGVPSRFSGSGSGTEFTLTISSLQPEDSATYYCQQLNSYPPLFGQGTRLEIK	1.69
C854 (protein) chain 1: EVQLVESGGGLIQPGGSLRLSCAASGITVSSNYMNWVRQAPGKGLEWVSVLYAGGSTFYADSVKGRFTISRDDSKNTLYLQMDSLRAEDTAVYYCARDLSSSGGFDYWGQGTLVTVSS chain 2: EIVLTQSPGTLSLSPGERATLSCRASQSVSSSYLAWYQQKPGQAPRLLIYGASSRATGIPDRFSGRGSGTDFTLTISRLEPEDFAVYYCQQYGSLYTFGQGTKLEIK	2.57
C1046 (protein) chain 1: EVQLVQSGAEVKKPGESLKISCKGSGYSFTSYWIGWVRQMPGKGLEWMGIIYPGDSDTRYSPSFQGQVTISADKSISTAYLQWSSLKASDTAMYYCARMVTSGTYYYDNSGYSSSGPFDYWGQGTLVTVSS chain 2: DIQLTQSPSSLSASVGDRVTITCRASQGISSALAWYQQKPGKAPKLLIYDASSLESGVPSRFSGSGSGTDFTLTISSLQPEDFATYYCQQFNNFGPGTKVDIK	3.8
C1053 (protein) chain 1: EVQLLESGGGLVQPGGSLRLSCAASGFTFSSYAMNWVRQAPGKGLEWVSAISGSGGGTYYADSVKGRFTISRDNSKNTLYLQMDSLRAEDTAVYYCAKDVPIEQQLVPTFDYWGQGALVTVSS chain 2: DIQMTQSPSSLSASVGDRVTITCRASQSISRYLNWYQQKPGKAPKLLIYGASSLQSGVPSRFSGSGSGTDFTLTISSLQPEDFATYWCQQSYSTLSITFGQGTRLEIK	4.13
C1054 (protein) chain 1: EVQLLESGGGLVQPGGSLRLSCVVSGFTFSSYAMNWVRQAPGKGLEWVSVIGGSGDGRYYADSVKGRFTISRDNSKNTLYLQMNSLRGDDTAVYYCARDVPVEQQLVPTFDYWGQGTLVTVSS chain 2: DIQMTQSPSSLSASVGDRVTITCRASQSISRYLNWYQQKPGKAPKLLIYAASSLQSGVPSRFSGSGSGTEFTLTISSLQPEDFATYYCQQSYSTLSITFGQGTRLEIK	1.64
C1050 (protein) chain 1: EVQLVESGGGLVQPGRSLRLSCAASGFTFDDYGMHWVRQAPGKGLEWVSGISWNGDSIGYADSVKGRFTISRDNAKTSLYLQMNRLRAEDTALYYCAKAASRSTRIGGAFDIWGQGTMVTVSS chain 2: QSALTQPASVSGSPGQSITISCTGTSSDVGGYNLVSWYQQHPGKAPKLMIYEGSKRPSGVSNRFSGSKSGNTASLTISGLQAEDEADYYCCSYAYSFTNVFGTGTKVTV	2.78
C1051 (protein) chain 1: EVQLVESGGGLVQPGRSLRLSCVASGFTFDDYGLHWVRQAPGKGLEWVSGISWNSDSIGYADSVKGRFAISRDNARTSLYLQMNRLRAEDTALYYCAKAASRSTRIGGAFDIWGQGTMVTVSS chain 2: QSALTQPASVSGSPGQSITISCTGTSSDVGGYNLVSWYQQYPGKAPKLMIYEDSKRPSGVSHRFSGSKSGNTASLTISGLQAEDEADYYCCSYAFSFTNVFGTGTKVTV	1.4
C1057 (protein) chain 1: QVQLVQSGAEVKKPGSSVKVSCKASGGTFTTYIISWVRQAPGQGLEWMGGISPMLGTANYAQKFQGGVTITADESTTTAYMEMSGLRSEDTAVYYCARAHMYCSDGSCYRQSGYFDSWGQGTLVTVSS chain 2: QSALTQPRSVSGSPGQSVTITCTGTSSNVGGYKYVSWFQQHPGKAPKFLIYDVSERSSGVPDRFSGSKSGNTASLTISGLQAEDEADYYCCSYAGKYTVVFGGGTRLTV	2.12
C1040 (protein) chain 1: QVQLVESGGGVVQPGRSLRLSCAASGFSFINYNMHWVRQAPGKGLEWVAVIWYDGSNKYYADSVKGRFTISRDNSKNTLYLQMNSLRVEDTAVYYCARDPAITEAEIDYWGQGTLVTVSS chain 2: DVVMTQSPLSLPVTLGQAASISCRSSQSLVHSDGNTYLNWFQQRPGQSPRRLIYRVSNRDSGVPDRFSASGSGTDFTLKISRVEAEDVGVYYCMQGTHWPWTFGQGTKVEIK	2.08
C1047 (protein) chain 1: EVQLVQSGAEVKKPGESLKISCKGSGYSFISYWIVWVRQMPGKGLEWIGIIYPGDSDTIYSPSFQGQVTLSADKSISTAYLQWSSLKASDTAIYYCAKMVTSGTSYYETRGYASSGPFDNWGQGTLVTVSS chain 2: DIQLTQSPSSLSASVGDRVTITCRASQGISSALAWYQQKPGKAPKLLIYDASSLESGVPSRFSGSGSGTDFTLTISSLQPEDFATYYCQQSDNFGPGTKVDI	2.46
C1052 (protein) chain 1: QVQLVQSGAEVKKPGASVKVSCKVSGYTLSELSMHWVRQAPGEGLEWLGGFDPEDGETINAQKFQGRVTMTEDRSTDTAYMELSSLRSEDTAVYYCATRGRYCSSGNCYYHHWGQGTLVTVSS chain 2: DIQMTQSPSTLSASVGDRVIITCRASQNIHNWLAWYQQKPGKAPKLLIYKASSLESGVPSRFSGSGSGTEFTLTISSLQPDDFATYFCQQYHSYSWTFGQGTKVEIK	2.64
C1048 (protein) chain 1: EVQLVQSGAEVKKPGESLKISCKVSGYSFISHWIGWVRQMPGKGLEWMGIIYPGDSDTRYSPSFQGQVTISADKSISTAYLQWSSLKASDTAMYYCARRGASWELDYWGQGTLVTV chain 2: QSVLTQPPSASGTPGQRVTISCSGSSSNIGSNPVSWYQQLPGPAPQLLIYGNDQRPSGVPDRFSGSKSGTSASLAISGLQSEDEADYYCAAWDDSLNGYVFGTGTKVTVL	2.41
C1049 (protein) chain 1: EVQLVQSGAEVKKPGESLKISCKSSGYSFISHWIGWVRQMPGKGLEWMGIIWPGDSDTRYSPSFQGQVTISVDKSITTVYLQWSSLKAADTAMYYCARRGSSWEVDYWGQGTLVTVSS chain 2: not shown	2.81
C1043 (protein) chain 1: EVQLVESGGGLVQPGRSLRLSCAASGFIFDNYAMHWVRQAPGKGLEWVSGISWNSDSIGYADSVKGRFTISRDNAKNSLYLQMSSLRAEDTALYYCAKDLLGNYYYYTLDVWGQGTTVTVSS chain 2: QSALTQPASVSGSPGQSITISCTGTSSDIGGNNYVSWYQQHPGKAPRLMIFDVSYRPSGVSNRFSGSKSGNTASLTISGLQAEDEADYYCISYTTSSTLGVFGGGTKLTVL	2.77

Recombinant human monoclonal antibodies (heavy:light variable regions). ELISA EC50 on the named antigen, from 10 µg/ml down; lower = stronger. No active / inactive call.
